Laboratory results from article PMC6212790.
The list shows a part of the results. At the low end of the ranking the order means little.

Each sequence was assayed against T1, GST-Rok-C97-191 (UniProt O34857) (assay: protein binding microarray). Settings: Rok is a gene silencer of Bacillus subtilis; high values mean tight binding; most listed sequences are background and not binding sites; double strand, one strand shown.
T1 sequence: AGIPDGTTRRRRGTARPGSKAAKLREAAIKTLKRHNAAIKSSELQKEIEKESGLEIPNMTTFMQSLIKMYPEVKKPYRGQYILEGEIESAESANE
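Note: rank score from −0.5 (least bound) to 0.5 (best bound).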

Q: Which binding signal does the source give for ATGCTTGA here?
A: -0.0156 E-score

Q: Which binding signal does the source give for CCTTATAG here?
A: -0.14 E-score

Q: How did the binding signal turn out when AGTCCTGG was run?
A: -0.174 E-score

Q: How did the binding signal turn out when GAGGTCGA was run?
A: -0.175 E-score

Q: With CAGCTACG as the sequence, how does the binding signal read?
A: -0.116 E-score

Q: How did the binding signal turn out when ATCAGCGA was run?
A: -0.088 E-score

Q: Which binding signal does the source give for CATCAAAA here?
A: 0.0604 E-score

Q: With CCCATACC as the sequence, how does the binding signal read?
A: -0.266 E-score

Q: For ATGGAGTA, which binding signal is on record?
A: 0.0769 E-score

Q: With GGGGGCAC as the sequence, how does the binding signal read?
A: -0.382 E-score

Q: With CACCACTC as the sequence, how does the binding signal read?
A: -0.262 E-score

Q: Which binding signal does the source give for CCAACGCC here?
A: -0.246 E-score

Q: How did the binding signal turn out when CGGAGAAA was run?
A: -0.0905 E-score

Q: How did the binding signal turn out when CCGCAAGG was run?
A: -0.349 E-score

Q: How did the binding signal turn out when CAGAACCG was run?
A: 0.00965 E-score

Q: Which binding signal does the source give for GAGATTGC here?
A: -0.0481 E-score

Q: For CTACTGGA, which binding signal is on record?
A: 0.204 E-score

Q: Which binding signal does the source give for AATAGACC here?
A: 0.155 E-score

Q: Which binding signal does the source give for CCACTTCA here?
A: 0.0603 E-score

Q: How did the binding signal turn out when ACACCCTC was run?
A: -0.173 E-score

Q: With ACTGACTA as the sequence, how does the binding signal read?
A: 0.139 E-score

Q: With ACCGTCAC as the sequence, how does the binding signal read?
A: 0.0542 E-score

Q: How did the binding signal turn out when ATACACAT was run?
A: 0.214 E-score

Q: Which binding signal does the source give for AGCGCCAA here?
A: -0.207 E-score

Q: GCAGTTAC was tested. Which binding signal did it give?
A: 0.134 E-score

Q: Which binding signal does the source give for CACCCGTG here?
A: -0.0933 E-score

Q: How did the binding signal turn out when GACAGTCC was run?
A: -0.285 E-score

Q: For CTCCAGGA, which binding signal is on record?
A: -0.0714 E-score

Q: Which binding signal does the source give for CAATAACG here?
A: -0.0985 E-score

Q: How did the binding signal turn out when GTGACCGA was run?
A: 0.048 E-score

Q: For TAGAGTAA, which binding signal is on record?
A: 0.184 E-score

Q: For CCTTATAA, which binding signal is on record?
A: 0.0808 E-score

Q: Which binding signal does the source give for CAGGTCAA here?
A: -0.108 E-score

Q: Which binding signal does the source give for CACCTTGA here?
A: -0.0916 E-score

Q: Which binding signal does the source give for ATGCCGCA here?
A: -0.151 E-score

Q: CTCTGAAC was tested. Which binding signal did it give?
A: -0.129 E-score

Q: For ATGGTCGG, which binding signal is on record?
A: -0.0958 E-score

Q: For CCTCACAG, which binding signal is on record?
A: -0.0263 E-score

Q: Which binding signal does the source give for AGATTCGA here?
A: 0.104 E-score

Q: Which binding signal does the source give for CGAGGCTC here?
A: -0.225 E-score

Q: How did the binding signal turn out when GTGGTGTA was run?
A: 0.129 E-score

Q: ACGCGTAT was tested. Which binding signal did it give?
A: 0.126 E-score

Q: ATCCTGAA was tested. Which binding signal did it give?
A: -0.00316 E-score

Q: Which binding signal does the source give for ATTCTAGG here?
A: 0.145 E-score

Q: How did the binding signal turn out when CGAATGAA was run?
A: 0.058 E-score

Q: Which binding signal does the source give for CTTTGAGA here?
A: -0.0803 E-score

Q: How did the binding signal turn out when GGATCGAC was run?
A: -0.157 E-score

Q: Which binding signal does the source give for GGCCACGA here?
A: -0.313 E-score

Q: Which binding signal does the source give for CACTATAA here?
A: 0.155 E-score

Q: Which binding signal does the source give for ATTGCGAG here?
A: 0.0155 E-score

Q: Which binding signal does the source give for GGGTTTGA here?
A: -0.123 E-score

Q: With AGGGTGAA as the sequence, how does the binding signal read?
A: -0.187 E-score

Q: For GGGTACGA, which binding signal is on record?
A: -0.165 E-score

Q: How did the binding signal turn out when AATACGCC was run?
A: -0.0105 E-score

Q: For CTTTGAGC, which binding signal is on record?
A: -0.0975 E-score

Q: Which binding signal does the source give for ATGACATG here?
A: -0.0751 E-score

Q: How did the binding signal turn out when CCGGCTGC was run?
A: -0.24 E-score

Q: GGGCCAGA was tested. Which binding signal did it give?
A: -0.302 E-score

Q: For AGCGATAA, which binding signal is on record?
A: 0.111 E-score

Q: How did the binding signal turn out when ATACCATA was run?
A: 0.267 E-score

Q: How did the binding signal turn out when GAGTCTCA was run?
A: -0.158 E-score

Q: With AGTTCGAC as the sequence, how does the binding signal read?
A: 0.0201 E-score

Q: With AAAGTGTG as the sequence, how does the binding signal read?
A: -0.107 E-score

Q: For CCGACGAA, which binding signal is on record?
A: 0.0799 E-score

Q: AGCTTGCC was tested. Which binding signal did it give?
A: -0.138 E-score

Q: Which binding signal does the source give for GCTACTTA here?
A: 0.279 E-score

Q: With ACACTTAA as the sequence, how does the binding signal read?
A: 0.0866 E-score

Q: For ATCTCAGA, which binding signal is on record?
A: 0.0386 E-score

Q: With GACCATTA as the sequence, how does the binding signal read?
A: 0.0314 E-score

Q: With AACCCAAT as the sequence, how does the binding signal read?
A: 0.0675 E-score

Q: With ATGCGGAC as the sequence, how does the binding signal read?
A: 0.000472 E-score

Q: ACTACCAC was tested. Which binding signal did it give?
A: 0.383 E-score

Q: For ATGCACAC, which binding signal is on record?
A: -0.121 E-score

Q: How did the binding signal turn out when ATATCGGA was run?
A: 0.24 E-score

Q: AGCTAATG was tested. Which binding signal did it give?
A: 0.162 E-score

Q: Which binding signal does the source give for GCACAGAC here?
A: -0.129 E-score

Q: How did the binding signal turn out when CATCGCTC was run?
A: -0.326 E-score

Q: How did the binding signal turn out when AGCAACCC was run?
A: -0.243 E-score

Q: How did the binding signal turn out when ACCCCCCC was run?
A: -0.231 E-score

Q: For AGTTCCAT, which binding signal is on record?
A: 0.168 E-score

Q: How did the binding signal turn out when ATTAATTC was run?
A: 0.147 E-score

Q: For GGTCCGGA, which binding signal is on record?
A: -0.091 E-score

Q: For TCGGCAAA, which binding signal is on record?
A: -0.209 E-score

Q: How did the binding signal turn out when CGCATGAC was run?
A: -0.0389 E-score

Q: With CTTTCGGC as the sequence, how does the binding signal read?
A: -0.163 E-score

Q: With AGGCACTC as the sequence, how does the binding signal read?
A: -0.294 E-score

Q: With ATTTTACG as the sequence, how does the binding signal read?
A: 0.268 E-score

Q: With CCACGGTC as the sequence, how does the binding signal read?
A: -0.172 E-score

Q: How did the binding signal turn out when GCGGACGC was run?
A: -0.255 E-score

Q: Which binding signal does the source give for ATGTCCAG here?
A: -0.00222 E-score

Q: With AGTACGCG as the sequence, how does the binding signal read?
A: -0.0757 E-score

Q: CCCCGTAC was tested. Which binding signal did it give?
A: -0.147 E-score

Q: For AAGGTATA, which binding signal is on record?
A: 0.181 E-score

Q: With CAGATCAG as the sequence, how does the binding signal read?
A: -0.267 E-score
